Measured values taken from PubChem BioAssay AID743279 (National Center for Advancing Translational Sciences (NCATS), 2014).
Hit rate of the full screen: of about 360,000 compounds, about 17,000 (4.7%) were called active. Inconclusive means that the source gave no clear call. Such entries were picked first, then a sample of the others. No stated cut-off is given here; in the data, active means activity change below about -50%; inconclusive means mostly about -30% to -49%; inactive means weaker than that.

Test: qHTS for Inhibitors of Inflammasome Signaling: IL-1-beta AlphaLISA Primary Screen
Settings: THP-1 LPS/ATP IL-1B secretion, 16 h; at 57.5 µM, active compounds read low
Outline: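 THP-1 cells pretreated 1 hr with compounds (up to 57.5 uM final), then stimulated with LPS (250 ng/mL final) plus ATP (1.25 mM final); secreted IL-1B measured by AlphaLISA after 16 hr, decreased signal indicating inhibition.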
On the % scale 0 is the no-effect control and ±100 the full control effect.

SMILES	activity change
CC1CCN(C(=O)CSc2nnc(Cc3cccn3C)n2CCc2ccccc2)CC1	inconclusive: -41.5%
N#Cc1ccsc1NC(=O)c1ccc(Cl)c([N+](=O)[O-])c1	inconclusive: -44.3%
Oc1ccc(/C=N/N2CCCCC2)cc1O	inactive: 16.1%
CC[C@]12c3[nH]c4cc(-c5ccco5)ccc4c3CCN1C(=O)[C@@H](CC(=O)NCCN1CCOCC1)C[C@@H]2C(=O)N1CCN(C(=O)c2ccco2)CC1	inactive: -1.13%
CC1Cc2ccccc2N1S(=O)(=O)c1cccc(C(=O)Nc2cccnc2)c1 (configuration not stated)	inconclusive: -32.3%
Cc1ccc(C(=O)NCCCc2ccccc2)c(C)c1	inactive: -15.5%
COc1cc(/C=C/C(=O)OCC(=O)Nc2cc(S(=O)(=O)N3CCOCC3)ccc2Cl)cc(OC)c1OC	inactive: -26.1%
CCCCOc1ccc(CNC(=S)N/N=C/c2ccc(OC)c(OC)c2)cc1	inconclusive: -37.7%
O=c1cc(-c2ccc(O)cc2)oc2c1ccc1ccccc12	active: -59.2%
COc1ccccc1OCc1nc(C#N)c(NCc2ccco2)o1	inconclusive: -35.4%
O=C(NCc1ccccc1)c1ccc(Cl)c(S(=O)(=O)N2CCCC2)c1	inconclusive: -41.3%
N#Cc1c2n(c3c(=O)n(Cc4ccc(Cl)cc4)cnc13)CCCCC2	inconclusive: -42.2%
COc1ccccc1NS(=O)(=O)c1cc(NC(=O)c2cccs2)ccc1N1CCOCC1	inactive: 20.5%
Cc1cc(Br)cn2c(Cc3ccccc3)c(-c3ccccc3)nc12	inactive: 38.5%
CCOc1ccc(CCNC(=O)COC(=O)c2cc([N+](=O)[O-])ccc2N2CCOCC2)cc1OCC	inconclusive: -42.9%
O=C(CSc1nnnn1C1CCCC1)c1ccc2c(c1)OCCO2	inconclusive: -34.2%
O=C(Nc1ccc(N2CCN(C(=O)c3ccc(Cl)cc3)CC2)cc1)c1ccc2c(c1)OCCO2	active: -60.8%
O=C(CSc1nc2ccccc2s1)NCCOc1ccc(Cl)cc1	inconclusive: -31%
CCC(CC)C(=O)Nc1ccc(C(=O)c2ccccc2)cc1	inconclusive: -33%
C[C@@H]1CN([C@H](C)CO)C(=O)c2cc(NC(=O)Nc3ccc(F)cc3)ccc2O[C@@H](C)CCCCO[C@H]1CN(C)S(=O)(=O)c1cccs1	inconclusive: -46.9%
CSc1ccccc1NC(=O)c1ccc(N2CC3CC(C2)c2cccc(=O)n2C3)c(NC(=O)c2ccncc2)c1 (configuration not stated)	inconclusive: -45.9%
O=C(Cc1ccc(-n2c(=O)[nH]c3ccsc3c2=O)cc1)N1CCN(c2ccc(Cl)cc2)CC1	active: -75.2%
